The values below come from PMC4336329 (PLoS ONE, 2015).

In all, about 310,000 compounds went through this assay and about 2,200 (0.71%) showed an effect of 50% or more. The effect is printed as a negative number. The list shows a part of the results.

human ether-à-go-go-related gene (hERG) potassium channel, sequence (Q12809 whole entry, looked up): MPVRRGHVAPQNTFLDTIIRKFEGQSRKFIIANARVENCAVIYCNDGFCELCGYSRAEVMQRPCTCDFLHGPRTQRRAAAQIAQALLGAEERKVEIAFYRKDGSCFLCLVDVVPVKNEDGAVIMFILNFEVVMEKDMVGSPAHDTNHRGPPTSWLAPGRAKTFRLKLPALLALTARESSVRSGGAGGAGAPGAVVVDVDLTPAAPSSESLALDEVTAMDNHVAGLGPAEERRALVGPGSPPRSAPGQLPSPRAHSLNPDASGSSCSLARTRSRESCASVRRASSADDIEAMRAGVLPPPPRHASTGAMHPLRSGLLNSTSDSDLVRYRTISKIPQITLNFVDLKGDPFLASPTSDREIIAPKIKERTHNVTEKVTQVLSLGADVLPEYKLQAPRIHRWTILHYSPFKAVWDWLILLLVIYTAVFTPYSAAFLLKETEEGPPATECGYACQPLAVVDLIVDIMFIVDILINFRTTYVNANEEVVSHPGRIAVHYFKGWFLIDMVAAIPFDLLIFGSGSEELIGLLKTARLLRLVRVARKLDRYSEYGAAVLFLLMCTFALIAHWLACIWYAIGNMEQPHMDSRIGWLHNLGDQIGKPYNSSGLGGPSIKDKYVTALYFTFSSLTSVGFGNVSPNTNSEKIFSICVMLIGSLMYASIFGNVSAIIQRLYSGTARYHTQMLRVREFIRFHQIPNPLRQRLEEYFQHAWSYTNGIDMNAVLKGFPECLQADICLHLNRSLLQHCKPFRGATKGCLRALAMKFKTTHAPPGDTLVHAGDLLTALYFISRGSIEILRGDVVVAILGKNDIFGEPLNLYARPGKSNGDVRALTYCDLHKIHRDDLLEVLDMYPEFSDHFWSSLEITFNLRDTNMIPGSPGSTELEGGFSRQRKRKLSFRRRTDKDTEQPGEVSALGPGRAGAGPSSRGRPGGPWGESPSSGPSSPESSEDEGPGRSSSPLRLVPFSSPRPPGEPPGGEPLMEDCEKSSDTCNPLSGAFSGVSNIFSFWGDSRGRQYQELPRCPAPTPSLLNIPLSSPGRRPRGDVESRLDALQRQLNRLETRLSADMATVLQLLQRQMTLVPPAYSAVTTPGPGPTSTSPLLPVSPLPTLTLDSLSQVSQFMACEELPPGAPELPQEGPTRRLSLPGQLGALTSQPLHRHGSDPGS

The assay concerns the target human ether-à-go-go-related gene (hERG) potassium channel (human, UniProt Q12809). The assay is described as follows: primary screen, population patch clamp on CHO cells stably expressing hERG.
As for `COCCCNC(=O)CN1C(=O)c2cccc3cccc1c23`, the “hERG current change (%, negative = inhibition) at 1uM” value is given as 12.2%.

In the case of `Cc1noc(C)c1COc1cccc(C(=O)Nc2ccc3c(c2)OCO3)c1`, the “hERG current change (%, negative = inhibition) at 1uM” value came out at 12.7%.

As to `COc1ccc(-c2noc(CCC(=O)NC3CCN(Cc4ccccc4)CC3)n2)cc1`, the “hERG current change (%, negative = inhibition) at 1uM” value is recorded as -5.69%.

For the compound `O=c1[nH]c(=S)n(Cc2ccc(F)cc2)c(O)c1C=NCC1CCCO1` (stereo not shown), the “hERG current change (%, negative = inhibition) at 1uM” value is -46.4%.

With `O=C(NCC1CCCO1)C(=O)NCC(c1ccco1)N1CCN(c2ccccc2)CC1` (stereo not shown), the “hERG current change (%, negative = inhibition) at 1uM” value was 4.23%.

Regarding `CCCC1(C(=O)OCC)NC(c2ccc(N(C)C)cc2)C2C(=O)N(c3ccc(F)cc3)C(=O)C21` (stereo not shown), the “hERG current change (%, negative = inhibition) at 1uM” value worked out at 16.7%.

In the case of `CCN(C(=O)CSc1ncnc2sccc12)c1c(N)n(Cc2ccccc2)c(=O)[nH]c1=O`, the “hERG current change (%, negative = inhibition) at 1uM” value came out at 6.3%.

Turning to `CCC(C)/C(C)=N/NC(=O)c1ccc(COc2ccc(Cl)c(C)c2)cc1` (stereo not shown), the “hERG current change (%, negative = inhibition) at 1uM” value worked out at 1.67%.

As to `COC(=NC1CCCC1)C(O)c1c[nH]c2ccccc12` (stereo not shown), the “hERG current change (%, negative = inhibition) at 1uM” value is reported as 6.77%.

On to `CCN(C1=NS(=O)(=O)c2ccccc21)N(CC)S(=O)(=O)c1ccc(C)cc1`, for which the “hERG current change (%, negative = inhibition) at 1uM” value was found to be 14.8%.

Turning to `N#Cc1ccsc1NC(=O)CN1CCCCCC1`, the “hERG current change (%, negative = inhibition) at 1uM” value was -4.08%.

Turning to `CCCCCCSc1ccc([C@H]2N[C@@](Cc3ccccc3)(C(=O)OC)[C@H]3C(=O)N(C)C(=O)[C@@H]23)cc1OC.O=C(O)C(F)(F)F`, the “hERG current change (%, negative = inhibition) at 1uM” value is given as 10.6%.

As for `CCCCN1C(=O)C2(OCCCO2)c2cccc(C)c21`, the “hERG current change (%, negative = inhibition) at 1uM” value is 11.7%.

On to `CC(C)(C)c1ccc(OCCCC(=O)NC2=NCCS2)cc1`, for which the “hERG current change (%, negative = inhibition) at 1uM” value turned out to be 11.4%.

In the case of `CN(CC(=O)Nc1ccc(F)cc1)C(=O)Cn1c(=O)oc2ccccc21`, the “hERG current change (%, negative = inhibition) at 1uM” value is reported as 3.7%.

`COCC(=O)Nc1cc(C(=O)NCCc2ccccc2)ccc1Cl`: the “hERG current change (%, negative = inhibition) at 1uM” value is recorded as 7.95%.

With `COc1ccc(C(CC(=O)Nc2ccc(Cl)cc2F)NC(=O)C(F)(F)F)cc1` (stereo not shown), the “hERG current change (%, negative = inhibition) at 1uM” value came to 13.5%.

Turning to `COc1ccc(N(CC(=O)O)S(=O)(=O)c2c(C)n[nH]c2C)cc1`, the “hERG current change (%, negative = inhibition) at 1uM” value came to 3.23%.

As for `COC(=O)[C@@H]1CCCN1Cc1nc(Cc2ccc(OC)c(OC)c2)no1`, the “hERG current change (%, negative = inhibition) at 1uM” value turned out to be 8.73%.

Regarding `CCN(CC)CCNC(=O)C1(O)c2cc(Br)ccc2NC(=O)N1c1cccc(OC)c1` (stereo not shown), the “hERG current change (%, negative = inhibition) at 1uM” value turned out to be 16.3%.

Consider `Oc1cccc2ccc(/C=C/c3cccs3)nc12`, for which the “hERG current change (%, negative = inhibition) at 1uM” value is -13.9%.

As to `O=C(N/N=C/c1cc2c(cc1Br)OCO2)c1cc2ccccc2o1`, the “hERG current change (%, negative = inhibition) at 1uM” value is 14.9%.

Take `Cl.NC(=NC1CCCCC1)c1ccc(Cl)cc1`: the “hERG current change (%, negative = inhibition) at 1uM” value was determined as 2.36%.

For the compound `O=C(Cc1nc2ccccc2[nH]1)N/N=C/c1ccccc1`, the “hERG current change (%, negative = inhibition) at 1uM” value is reported as 12.4%.

With `CCOC(=O)Cn1nnc(-c2ccc(S(C)(=O)=O)cc2)n1`, the “hERG current change (%, negative = inhibition) at 1uM” value is listed as 21.1%.

Take `COc1ccc(C(=O)Nc2cccc([N+](=O)[O-])c2)cc1Br`: the “hERG current change (%, negative = inhibition) at 1uM” value is 1.04%.

In the case of `Clc1ccc(-c2noc(COc3ccccc3)n2)cc1`, the “hERG current change (%, negative = inhibition) at 1uM” value is on record as 10.4%.

Consider `COc1ccc(OCC(=O)NNC(=O)c2cc3ccccc3o2)cc1`, for which the “hERG current change (%, negative = inhibition) at 1uM” value is on record as 5.62%.

Regarding `COc1cc2c(C(=O)N3CCN(C)CC3)c(C)n(C)c2cc1Br`, the “hERG current change (%, negative = inhibition) at 1uM” value is -4.09%.

On to `Cc1ccc(/C=C/C(=O)OC(C)C(=O)NC2CCCCC2C)o1` (stereo not shown), for which the “hERG current change (%, negative = inhibition) at 1uM” value is reported as -1.79%.

Consider `CCOc1ccccc1N1CCN(S(=O)(=O)c2cccs2)CC1`, for which the “hERG current change (%, negative = inhibition) at 1uM” value turned out to be 10.9%.

`CN(C)C(=O)CN1CCN(Cc2nc(CC3CC3)no2)CC1`: the “hERG current change (%, negative = inhibition) at 1uM” value is 7.17%.

As for `Clc1ccc(-c2cn(-c3ccccc3)c3[n+]2CCS3)cc1.[Br-]`, the “hERG current change (%, negative = inhibition) at 1uM” value is -17.9%.

For the compound `N[C@@H](Cc1cc(Br)c(O)c(Br)c1)C(=O)O`, the “hERG current change (%, negative = inhibition) at 1uM” value came out at 8.45%.

As for `COc1ccccc1NS(=O)(=O)c1cccc(C(=O)N/N=C/c2cn(-c3ccccc3)nc2-c2ccccc2)c1`, the “hERG current change (%, negative = inhibition) at 1uM” value is given as -15.7%.

On to `CC1(C)Cc2ccccc2C(N)=C1C#N`, for which the “hERG current change (%, negative = inhibition) at 1uM” value was -3.82%.

For `COc1cc(NC(=O)Cn2c(-c3cncs3)nc3ccccc32)cc(OC)c1OC`, the “hERG current change (%, negative = inhibition) at 1uM” value is listed as 4.74%.

`Cc1cc(C)c(OCCOCCN2CCNCC2)c(C)c1.O=C(O)C(=O)O`: the “hERG current change (%, negative = inhibition) at 1uM” value is listed as 13.4%.

For `Cc1ccccc1S(=O)(=O)Nc1ncc(C(F)(F)F)cc1Cl`, the “hERG current change (%, negative = inhibition) at 1uM” value was determined as 20.1%.

As for `NC(=O)Cn1cnc2nc3n(c2c1=O)CCC3`, the “hERG current change (%, negative = inhibition) at 1uM” value is given as -2.24%.

Take `C=CCn1c(SCC(=O)NC2CCCC2)nc2sc(C)cc2c1=O`: the “hERG current change (%, negative = inhibition) at 1uM” value is -3.24%.

For the compound `COC(=O)c1sccc1NC(=O)Nc1cccc(C(C)=O)c1`, the “hERG current change (%, negative = inhibition) at 1uM” value is 10.8%.

Consider `CCC1CCC/C1=N\NC(=O)c1ccc(Cl)cc1` (stereo not shown), for which the “hERG current change (%, negative = inhibition) at 1uM” value is on record as 1.17%.

Regarding `CC/C(=N\Nc1cccc2ccccc12)c1c(O)[nH]c(=O)[nH]c1=O`, the “hERG current change (%, negative = inhibition) at 1uM” value is listed as 10.9%.

`FC(F)(F)c1cccc(Cc2noc(CN3CCC(N4CCCCC4)CC3)n2)c1`: the “hERG current change (%, negative = inhibition) at 1uM” value is given as -26.3%.

Regarding `O=C(COc1ccc(S(=O)(=O)NC2CCCC2)cc1)NCC1CCCO1` (stereo not shown), the “hERG current change (%, negative = inhibition) at 1uM” value was 11.5%.

In the case of `COc1ccccc1CN1CCNC(=O)C1CC(=O)NCCC1=CCCCC1` (stereo not shown), the “hERG current change (%, negative = inhibition) at 1uM” value is on record as 11.8%.

Regarding `NC(=O)NC(=O)COC(=O)CCCCCNS(=O)(=O)c1ccc2c(c1)OCCO2`, the “hERG current change (%, negative = inhibition) at 1uM” value amounted to 5.49%.

As to `COc1ccccc1N1CCN(C2CCCN(Cc3ccc(Cl)cc3)C2)CC1` (stereo not shown), the “hERG current change (%, negative = inhibition) at 1uM” value is given as -13.4%.

As for `CCSc1c([N+](=O)[O-])c(=O)n(-c2ccccc2)c2ccccc12`, the “hERG current change (%, negative = inhibition) at 1uM” value was 4.74%.

Turning to `O=c1cnc2cc([N+](=O)[O-])ccc2[nH]1`, the “hERG current change (%, negative = inhibition) at 1uM” value was determined as 10.1%.

`Cc1ccc(-n2nc3c(c2NC(=O)c2ccco2)CS(=O)(=O)C3)cc1C`: the “hERG current change (%, negative = inhibition) at 1uM” value is recorded as -2.67%.

Turning to `Clc1cccc(CN2CCN(Cc3ccco3)CC2)c1.O=C(O)C(=O)O`, the “hERG current change (%, negative = inhibition) at 1uM” value is reported as 8.19%.

`Cc1occc1C(=O)N1CCC2(CCCN(Cc3ccc(F)c(F)c3)C2)C1` (stereo not shown): the “hERG current change (%, negative = inhibition) at 1uM” value stood at 0.808%.

In the case of `Cc1ccc(NC(=O)C(c2ccc(Cl)cc2)N2CCOCC2)cc1` (stereo not shown), the “hERG current change (%, negative = inhibition) at 1uM” value is reported as 16.1%.

`COc1cccc(C2CC(=O)Nc3cc(OC)c(OC)c(OC)c32)c1OC` (stereo not shown): the “hERG current change (%, negative = inhibition) at 1uM” value was -4.5%.

Take `Nc1ncnc(Nc2ccccc2)n1`: the “hERG current change (%, negative = inhibition) at 1uM” value turned out to be 1.57%.

As for `CC(=O)Nc1cccc(NC(=O)CSc2nnnn2C(C)C)c1`, the “hERG current change (%, negative = inhibition) at 1uM” value worked out at 9.3%.
